Assay results as given in article PMC4336329 (PLoS ONE, 2015).
The whole screen tested about 310,000 compounds, of which about 2,200 (0.71%) showed an effect of 50% or more. The effect is printed as a negative number. Some of the results follow.

target: human ether-à-go-go-related gene (hERG) potassium channel (human, UniProt Q12809); assay: primary screen, population patch clamp on CHO cells stably expressing hERG
Sequence (Q12809 whole entry, looked up): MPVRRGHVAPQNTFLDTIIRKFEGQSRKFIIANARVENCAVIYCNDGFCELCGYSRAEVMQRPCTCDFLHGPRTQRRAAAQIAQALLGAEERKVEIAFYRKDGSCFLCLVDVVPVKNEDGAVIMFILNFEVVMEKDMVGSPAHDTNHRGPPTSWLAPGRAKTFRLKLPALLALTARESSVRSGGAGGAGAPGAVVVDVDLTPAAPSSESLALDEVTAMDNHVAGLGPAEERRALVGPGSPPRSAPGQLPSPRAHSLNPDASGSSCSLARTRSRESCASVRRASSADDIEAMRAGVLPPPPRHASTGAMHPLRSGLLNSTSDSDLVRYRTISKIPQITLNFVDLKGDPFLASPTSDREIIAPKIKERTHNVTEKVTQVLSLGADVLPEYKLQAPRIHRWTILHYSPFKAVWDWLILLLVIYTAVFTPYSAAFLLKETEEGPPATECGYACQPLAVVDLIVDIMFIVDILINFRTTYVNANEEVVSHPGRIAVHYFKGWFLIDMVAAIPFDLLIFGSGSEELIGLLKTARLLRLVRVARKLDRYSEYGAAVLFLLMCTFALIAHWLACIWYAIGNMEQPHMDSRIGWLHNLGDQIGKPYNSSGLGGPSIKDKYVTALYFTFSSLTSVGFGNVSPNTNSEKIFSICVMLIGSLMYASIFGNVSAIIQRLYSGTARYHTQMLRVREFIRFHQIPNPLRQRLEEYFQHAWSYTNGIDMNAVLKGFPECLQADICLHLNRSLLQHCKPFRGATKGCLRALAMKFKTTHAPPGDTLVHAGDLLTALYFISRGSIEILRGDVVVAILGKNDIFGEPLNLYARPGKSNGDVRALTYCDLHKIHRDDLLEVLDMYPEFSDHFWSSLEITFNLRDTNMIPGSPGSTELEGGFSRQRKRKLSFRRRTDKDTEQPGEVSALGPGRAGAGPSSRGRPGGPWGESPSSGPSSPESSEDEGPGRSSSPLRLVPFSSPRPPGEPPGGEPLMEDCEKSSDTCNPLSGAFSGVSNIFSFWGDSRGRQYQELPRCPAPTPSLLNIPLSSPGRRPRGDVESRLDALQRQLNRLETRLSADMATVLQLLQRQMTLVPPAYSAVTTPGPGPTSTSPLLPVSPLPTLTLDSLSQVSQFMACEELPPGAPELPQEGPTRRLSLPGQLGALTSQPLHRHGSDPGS

SMILES	hERG current change (%, negative = inhibition) at 1uM
COc1ccc(CN2CCC(Oc3ccc(C(=O)N4CCCC4)cc3)CC2)c(F)c1	-22.8%
CNC(=O)c1cc2c(s1)-c1ccccc1CC2	3.26%
CCc1ccc(OCC(=O)NC(=S)Nc2ccc(Br)c(C)n2)cc1	4.44%
O=C(CSc1ccc(-c2cccnc2)nn1)Nc1ccccc1F	5.21%
O=S(=O)(Nc1ccc(N2CCOCC2)cc1)c1c(F)cc(F)cc1Br	14.2%
COc1cc(OC)c(-c2nnc3n(CCc4ccccc4)c(=O)c4ccccc4n23)cc1OC	8.75%
COc1ccc(Cc2n[nH]c(=S)n2N)cc1OC	12.1%
Cc1cccc(NC(=O)C(C)Oc2ccccc2C)n1 (centres unmarked)	6.51%
COc1ccc(/C=N/Nc2cc(C)nc(-n3nc(C)cc3C)n2)c(OC)c1	8.96%
CC1CC(C)CN(C2CCN(Cc3cccnc3)CC2)C1.O=C(O)C(=O)O (centres unmarked)	12.8%
Cc1cc(C(=O)COC(=O)CCc2nc3ccccc3c(=O)[nH]2)c(C)n1CC1CCCO1 (centres unmarked)	17.4%
Cc1ccc(S(=O)(=O)N(CC(=O)N=Nc2c(O)[nH]c3ccccc23)c2cccc(C)c2)cc1	1.25%
CCC(=O)Nc1ccccc1N1CCN(c2ccc(F)cc2)CC1	14.6%
Cc1ccc(S(=O)(=O)N(CC(O)CN2CCCCC2)c2ccccc2)cc1.Cl (centres unmarked)	-60.5%
CC(=O)Nc1ccc(Cc2ccc3[nH]c(=O)cc(C)c3c2)cc1	7.97%
Cc1cc(-c2nn(C)c(=O)c3ccccc23)ccc1CNC(=O)NC1CCCCC1	6.86%
O=C(COC(=O)CCOc1ccccc1)NCCc1ccccc1	14.9%
CCc1nn(C(C)C(=O)N2CCN(Cc3ccccc3)CC2)c(=O)c2cc3occc3n12 (centres unmarked)	-14.1%
CCOC(=O)C1(CCc2ccccc2)CCN(C(=O)C(C)n2cncn2)CC1 (centres unmarked)	-6.83%
CCOC(=O)c1[nH]c(C)c(/C(O)=C2\C(=O)C(=O)N(CCCN3CCOCC3)C2c2cccs2)c1C (centres unmarked)	0.476%
COc1ccc(Cl)cc1NC(=S)NC1CCCC1	16.6%
C=CCn1c(CSc2ccccc2[N+](=O)[O-])n[nH]c1=S	12.8%

SMILES	hERG current change (%, negative = inhibition) at 1uM
O=c1nc(NC2CCCC2)ccn1Cc1cccc(Br)c1	1.11%
NC(=O)c1ccc2nc(-c3ccccc3)c(-c3ccccc3)nc2c1	2.37%
C=CCNC(=S)NC1CC(C)(C)NC(C)(C)C1	-5.02%
CC(=O)Nc1ccc(S(=O)(=O)N2CCc3cc4c(cc3C2C)OCCCO4)cc1 (centres unmarked)	5.12%
O=c1c2c(nc3nc(NCc4cccc(Cl)c4)[nH]n13)CCC2	10.3%
O=C(CC(c1ccccc1)(c1ccccc1)c1ccccc1)N[C@@H](Cc1ccccc1)C(=O)O	14.7%
CCCCNC(=O)COc1ccccc1C(=O)c1cc(C#N)c(=O)n(CCOC)c1	-3.15%
O=C(COc1cccc(Cl)c1)Nc1ccc2c(c1)CCC2	3.64%
COc1ccc(C(=O)COC(=O)C(C(C)C)N2C(=O)C3C4C=CC(C4)C3C2=O)cc1 (centres unmarked)	8.56%
COc1cccc(OCc2nnc3n2N=C(c2ccccc2)C(CC(=O)O)S3)c1 (centres unmarked)	19.6%
Cc1cccc(-n2ncc3c(NCc4ccccn4)ncnc32)c1	-1%
C=CCn1c(SCC(=O)NC(=O)NCCC)nnc1C1CCCCC1	12.4%
CCN1CCN(C(=O)c2cc3c(OC)c(OC)c(OC)cc3[nH]2)CC1	27.8%
FC(F)(F)c1nnc2c(Sc3ccccc3)nc3ccccc3n12	8%
N#Cc1ccc(C(=O)OCC(=O)N2CCOCC2)cc1	15.4%
CC(CCc1ccccc1)NC(=O)CCNS(=O)(=O)c1ccccc1C(F)(F)F (centres unmarked)	16.2%
Cc1cc(OCC(=O)Nn2cnnc2)ccc1Br	8.67%
O=C1COc2cc(S(=O)(=O)CCC(=O)N3CCCCC3)c(Cl)cc2N1	4.22%
O=C(c1cc2cc(Cl)ccc2oc1=O)N1CCCCCCC1	6.39%
Cc1cc(C)c(S(=O)(=O)N(C2=NCCS2)S(=O)(=O)c2c(C)cc(C)cc2C)c(C)c1	6.55%
O=C(O)CCc1ccc(S(=O)(=O)Nc2ccc(OCc3ccccc3)cc2)cc1	8.72%
Cc1cccc(CCN(C(=O)c2csnn2)C(C(=O)NC2CCCC2)c2ccco2)c1 (centres unmarked)	-2.28%
